# Measured values: PubChem BioAssay AID1745853 (National Center for Advancing Translational Sciences (NCATS), 2022)
# This is one part of the list. These are further read-outs of the screen, such as a control signal, another cell line or another target. No call is given for them.
# Legend:
# Assay in all cases: Primary Screen for Target Class Profiling of Small Molecule Inhibitors of Methyltransferases
# [1] = target: Glycine N-methyltransferase (Homo sapiens) (UniProt Q14749); settings: purified enzyme, MTase-Glo SAH luminescence; measured here: GNMT inhibition; at 40 µM; stronger effect = lower value
# How it was run: (§1)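 Each enzyme was reacted with SAM and its substrate, with compounds tested once at 40 uM; SAH formed was read by MTase-Glo luminescence.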
# [2] = target: Guanidinoacetate N-methyltransferase (Homo sapiens) (UniProt Q14353); settings: purified enzyme, MTase-Glo SAH luminescence; measured here: GAMT inhibition; at 40 µM; stronger effect = lower value
# How it was run: as §1
# [3] = target: Histamine N-methyltransferase (Homo sapiens) (UniProt P50135); settings: purified enzyme, MTase-Glo SAH luminescence; measured here: HNMT inhibition; at 40 µM; stronger effect = lower value
# How it was run: as §1
# [4] = target: Nicotinamide N-methyltransferase (Homo sapiens) (UniProt P40261); settings: purified enzyme, MTase-Glo SAH luminescence; measured here: NNMT inhibition; at 40 µM; stronger effect = lower value
# How it was run: as §1
# [5] = target: Phenylethanolamine N-methyltransferase (Homo sapiens) (UniProt P11086); settings: purified enzyme, MTase-Glo SAH luminescence; measured here: PNMT inhibition; at 40 µM; stronger effect = lower value
# How it was run: as §1
# On the % scale 0 is the no-effect control and ±100 the full control effect.
SMILES,"activity change, negative = inhibition [1] [%]","activity change, negative = inhibition [2] [%]","activity change, negative = inhibition [3] [%]","activity change, negative = inhibition [4] [%]","activity change, negative = inhibition [5] [%]"
CNC(=O)[C@H]1C[C@H](Oc2ccccc2)CN1S(=O)(=O)c1c(C)noc1C,-2.09,-4.9,-0.48,-9.51,-0.903
CCCCN1C(=O)c2cc(C(=O)N3CCN(c4cccc(OC)c4)CC3)nn2CC1(C)C(=O)NC1CCCC1 (centres undefined),2.6,0,6.58,-4.35,-1.67
COCC1(CNC(=O)c2nc3ccccc3[nH]2)C[C@@H](O)[C@@H](O)C1 (some centres undefined),-0.508,0.73,1.2,0.409,-0.217
CCOC(=O)c1cc2n(n1)CC(C)(C(=O)NCc1ccc(F)cc1)N(CCc1ccc(OCC)cc1)C2=O (centres undefined),0.22,0.044,3.82,-8.57,2.72
C[C@H]1[C@H](C)CC[C@]2(C(=O)O)CC[C@]3(C)C(=CCC4[C@@]5(C)C[C@@H](O)[C@H](O)C(C)(C)C5CC[C@]43C)[C@H]12 (some centres undefined),0,-0.951,0.673,-16.3,-0.313
Cc1ccc(NC(=O)Cn2c(=O)oc3cc(S(=O)(=O)N4CC(C)CC(C)C4)ccc32)c(Cl)c1 (centres undefined),9.15,2.38,12,6.8,7.64
O[C@@H]1C[C@@H](c2nc(-c3ccc4c(c3)OCO4)no2)N(Cc2ccc(-c3ccccn3)cc2)C1,-9.47,-8.98,-6.79,-13.5,-9.93
CCC(C)NC(=O)c1ccc2c(=O)n(C(C)C)c3nn(Cc4cccc(F)c4)c(=O)n3c2c1 (centres undefined),-0.707,1.24,5.22,-1.76,0.27
CCOC(=O)c1cc2n(n1)CC(C)(C(=O)NCc1ccccc1)N(Cc1ccc(OC)cc1OC)C2=O (centres undefined),-1.38,3.87,1.52,-11.2,0.426
COc1ccc(-c2cc(C(=O)N3C[C@@H](CN(C)C)[C@@H](CO)C3)[nH]n2)cc1,-8.77,-1.29,-12.2,1.74,0.355
COc1cccc2c1OCC(C(=O)N1C[C@@H]3[C@H](C1)[C@H]1CC[C@@H]3O1)C2 (some centres undefined),-5.24,-7.88,-2.68,-5.56,-4.94
CC(C)OCCCNC(=O)C1(C)Cn2c(cc3ccccc32)C(=O)N1Cc1ccc(F)cc1 (centres undefined),9.45,2.17,7.72,13.6,3.22
CC(=O)C1CCC(=O)N1Cc1ccccc1 (centres undefined),0,6.46,10.7,-4.77,2.56
CC1CCN(S(=O)(=O)c2ccc3c(c2)oc(=O)n3CC(=O)NCCc2ccccc2)CC1,-4.05,0.296,-4.71,-7.93,-7.39
Cc1cc(C)cc(NS(=O)(=O)c2ccc3c(c2)NC(=O)CC(=O)N3)c1,3.08,3.81,5.18,9.54,0.429
CC(C)Cn1c(=O)c2ccccc2n2c(=O)n(Cc3ccc(F)cc3Cl)nc12,5.78,3.13,9,4.29,7.79
O=C(O)c1cccc(-c2cccc(C(F)(F)F)c2)c1,-16.1,-8.51,-7.62,-22.4,-9
COCC(=O)N1CCCN(c2nc3ncccc3o2)CC1,-4.2,-7.71,0.463,-14.9,0.843
CCCC1CCC(c2ccc(C(=O)COC(=O)C(Cc3c[nH]c4ccccc34)NC(=O)c3ccc(CC)cc3)cc2)CC1 (centres undefined),2.18,5.05,-3.97,-9,-2.43

SMILES,"activity change, negative = inhibition [1] [%]","activity change, negative = inhibition [2] [%]","activity change, negative = inhibition [3] [%]","activity change, negative = inhibition [4] [%]","activity change, negative = inhibition [5] [%]"
O=C(c1ccc(CC2CC(=O)N(c3ccccc3)C2)nc1)N1CCCC1 (centres undefined),-4.79,-4.77,-13.1,-7.99,1.04
Cn1c(=O)c2ccc(C(=O)NC3CCCC3)cc2n2c(SCc3cccc(Cl)c3)nnc12,-2.59,2.33,1.74,1.21,-2.29
Fc1ccc(C2CCNC[C@H]2COc2ccc3c(c2)OCO3)cc1 (some centres undefined),-1.1,,4.91,,
CCOc1ccc(CNC(=O)Cn2ccc3cc(S(=O)(=O)N4CCCCC4)ccc32)cc1OC,0.877,4.79,-4.34,-10.1,-0.189
COc1cccc(S(=O)(=O)N2CCC3(CC2)CC(OC)CCO3)c1 (centres undefined),-0.313,0,6.22,-2.15,1.28
COc1ccc(-c2cc(N3CCCC(NC(=O)c4cccc(C)c4)C3)n[nH]2)cc1 (centres undefined),-12.4,-12.6,-8.77,-24.2,-11.4
CCOc1ccccc1CNC(=O)c1cc2n(n1)CC(C)(C(=O)NC1CCCC1)N(C)C2=O (centres undefined),9.73,-0.81,3.63,-0.235,-0.558
CC1CC(C(O)C(C)(C)O)OC2CC3(C)C4(C)CCC5C(C)(C)C(=O)CCC5(C)C4CCC3(O)C12O (centres undefined),0.91,1.02,6.27,-14.8,-7.11
O=Nc1c(-c2c(O)[nH]c3cc(Br)ccc23)[nH]c2ccccc12,-42.3,-27.9,-28.6,-33.9,-32.6
CN(Cc1ccccc1C(F)(F)F)C(=O)Nc1ccccc1,-3.51,-2.14,-2.21,-3.41,-4.36
COc1cccc(CN2C(=O)c3nc4ccccc4n3CC2(C)C(=O)NCc2ccccc2)c1OC (centres undefined),3.6,0.751,8.53,8.66,3.63
CC1CCCC(NC(=O)C2(C)Cn3c(cc4sccc43)C(=O)N2Cc2ccc3c(c2)OCO3)C1C (centres undefined),-5.25,6.9,-1.59,-7.38,-0.414
O=C(CCc1nnc2n(Cc3ccc(Cl)cc3)c(=O)c3ccccc3n12)NCCN1CCOCC1,-16.2,1.82,-0.588,-4.6,1.72
COc1ccccc1CNC(=O)CCc1nnc2n(Cc3ccccc3)c(=O)c3ccccc3n12,-2.71,4.49,4.59,-3.56,2.28
CC1(c2nc3c(C(N)=O)cccc3[nH]2)CCCN1 (centres undefined),-2.54,,7.33,,
CCOc1ccccc1CN1C(=O)c2ccc(-c3ccco3)n2CC1(C)C(=O)NC1CCC(C)CC1 (centres undefined),-7.3,4.42,-2.94,-24.3,-2.27
COc1ccc(OC)c(-c2nc3cc4c(cc3cc2CN2CCCOCC2)OCO4)c1,-4.63,-1.16,0.597,-26.4,-6.79
O=c1c2ccccc2n2c(-c3ccc(O)cc3)nnc2n1Cc1ccc(F)cc1,-8.29,4.05,3.23,-13.9,-0.009
Cc1cccc(CN2C(=O)c3cc4ccccc4n3CC2(C)C(=O)NCCC(C)C)c1 (centres undefined),3.76,2.39,4.77,0.84,0.826
